Source: patent EP4810523A1 (Shenyang Sunshine Pharmaceutical Co., Ltd., dated 2025)
Each block holds one binder with its values, some of them ahead of it.

What was measured:
[1] = molecular target: T1, C3-his protein (Complement component 3 Protein, Human, Recombinant (His Tag), Sino Biological Inc., Cat# … (human, UniProt P01024 23-1663)); assay: ELISA, C3-his coated, anti-human IgG Fc-HRP; SD 0.031
T1 construct: Bought protein, coated on the ELISA plate; Natural C3 is processed into beta and alpha chains; also called human complement C3; complement C3; not shown: His tag
T1 sequence (P01024 23-1663 limits assumed): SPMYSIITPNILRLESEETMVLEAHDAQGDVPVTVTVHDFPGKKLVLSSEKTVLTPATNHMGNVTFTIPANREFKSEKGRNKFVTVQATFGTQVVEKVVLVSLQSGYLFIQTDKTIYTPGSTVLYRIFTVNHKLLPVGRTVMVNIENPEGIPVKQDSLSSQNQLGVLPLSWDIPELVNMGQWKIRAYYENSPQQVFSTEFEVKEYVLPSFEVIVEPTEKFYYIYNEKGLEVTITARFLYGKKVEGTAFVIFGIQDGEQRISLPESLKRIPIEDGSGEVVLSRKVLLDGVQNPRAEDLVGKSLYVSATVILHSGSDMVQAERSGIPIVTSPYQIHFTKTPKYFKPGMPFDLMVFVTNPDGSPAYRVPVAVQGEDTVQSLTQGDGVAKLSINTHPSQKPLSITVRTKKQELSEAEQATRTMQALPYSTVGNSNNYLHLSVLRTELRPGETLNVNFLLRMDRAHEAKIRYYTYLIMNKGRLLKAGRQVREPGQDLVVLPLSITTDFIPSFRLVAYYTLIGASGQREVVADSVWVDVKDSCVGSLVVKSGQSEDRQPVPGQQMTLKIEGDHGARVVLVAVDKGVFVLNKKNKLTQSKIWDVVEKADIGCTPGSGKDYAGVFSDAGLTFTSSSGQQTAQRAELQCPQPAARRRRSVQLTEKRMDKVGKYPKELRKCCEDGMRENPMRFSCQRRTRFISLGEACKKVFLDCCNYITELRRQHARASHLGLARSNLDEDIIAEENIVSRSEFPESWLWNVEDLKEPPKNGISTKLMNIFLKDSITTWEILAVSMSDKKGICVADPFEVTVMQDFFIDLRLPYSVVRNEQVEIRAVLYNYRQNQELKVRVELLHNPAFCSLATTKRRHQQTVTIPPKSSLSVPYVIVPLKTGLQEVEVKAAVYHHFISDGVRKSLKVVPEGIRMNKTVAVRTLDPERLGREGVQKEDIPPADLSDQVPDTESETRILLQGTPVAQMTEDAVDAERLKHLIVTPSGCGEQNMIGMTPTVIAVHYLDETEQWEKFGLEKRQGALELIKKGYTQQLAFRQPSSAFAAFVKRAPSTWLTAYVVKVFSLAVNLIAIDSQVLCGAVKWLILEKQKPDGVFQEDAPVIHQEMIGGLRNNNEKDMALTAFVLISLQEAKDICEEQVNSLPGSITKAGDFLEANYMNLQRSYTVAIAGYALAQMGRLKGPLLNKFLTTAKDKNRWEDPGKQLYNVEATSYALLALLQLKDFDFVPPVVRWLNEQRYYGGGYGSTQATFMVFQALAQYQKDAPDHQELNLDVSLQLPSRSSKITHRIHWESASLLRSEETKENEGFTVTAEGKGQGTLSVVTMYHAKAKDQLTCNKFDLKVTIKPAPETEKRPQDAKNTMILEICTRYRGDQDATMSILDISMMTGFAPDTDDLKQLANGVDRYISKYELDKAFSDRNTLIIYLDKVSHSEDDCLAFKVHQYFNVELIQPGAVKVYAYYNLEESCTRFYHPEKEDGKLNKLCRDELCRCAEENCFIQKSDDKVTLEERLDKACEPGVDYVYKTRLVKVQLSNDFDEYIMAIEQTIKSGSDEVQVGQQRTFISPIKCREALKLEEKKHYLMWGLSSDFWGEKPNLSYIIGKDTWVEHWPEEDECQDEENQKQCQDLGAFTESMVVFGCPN

[2] = molecular target: T1, C3-his protein (Complement component 3 …); assay: ELISA, C3-his coated at 1 ug/mL, anti-human IgG Fc-HRP; SD 0.018
[3] = molecular target: T1, C3-his protein (Complement component 3 …); assay: ELISA, C3-his coated at 2 ug/mL, anti-human IgG Fc-HRP; mean of duplicates, SD 0.001
[4] = molecular target: T1, C3-his protein (Complement component 3 …); assay: ELISA, C3-his coated at 2 ug/mL, biotinylated fusion protein, HRP-streptavidin; SD 0.014
[5] = molecular target: T1, C3-his protein (Complement component 3 …); assay: ELISA, C3-his coated at 2 ug/mL, anti-human IgG Fc-HRP; mean of duplicates, SD 1.690

EC50 [1]: 0.259 nM
B1: CRIg-FH-FCG[…]R-M86Y (Fc fusion)
chain: [skipping about 120 residues with changes]EDCNELPPRRNTEILTGSWSDQTYPEGTQAIYKCRPGYRSLGNVIMVCRKGEWVALNPLRKCQKRPCGHPGDTPFGTFTLTGGNVFEYGVKAVYTCNEGYQLLGEINYRECDTDGWTNDIPICEVVKCLPVTAPENGKIVSSAMEPDREYHFGQAVRFVCNSGYKIEGDEEMHCSDDGFWSKEKPKCVEISCKSPDVINGSPISQKIIYKENERFQYKCNMGYEYSERGDAVCTESGWRPLPSCEEKSCDNPYIPNGDYSPLRIKHRTGDEITYQCRNGFYPATRGNTAKCTSTGWIPAPRCTLKPPCPPCPAPEFLGGPSVFLFPPKPKDTLMISRTPEVTCVVVDVSQEDPEVQFNWYVDGVEVHNAKTKPREEQFNSTYRVVSVLTVLHQDWLNGKEYKCKVSNKGLPSSIEKTISKAKGQPREPQVYTLPPSQEEMTKNQVSLTCLVKGFYPSDIAVEWESNGQPENNYKTTPPVLDSDGSFFLYSRLTVDKSRWQEGNVFSCSVMHEALHNHYTQKSLSLSLGK

EC50 [2]: 0.27 nM
B2: CRIg-L(GS)-FH-FCG[…]R-M86Y (Fc fusion)
chain: [skipping about 120 residues with changes]GGGGSGGGGSGGGGSEDCNELPPRRNTEILTGSWSDQTYPEGTQAIYKCRPGYRSLGNVIMVCRKGEWVALNPLRKCQKRPCGHPGDTPFGTFTLTGGNVFEYGVKAVYTCNEGYQLLGEINYRECDTDGWTNDIPICEVVKCLPVTAPENGKIVSSAMEPDREYHFGQAVRFVCNSGYKIEGDEEMHCSDDGFWSKEKPKCVEISCKSPDVINGSPISQKIIYKENERFQYKCNMGYEYSERGDAVCTESGWRPLPSCEEKSCDNPYIPNGDYSPLRIKHRTGDEITYQCRNGFYPATRGNTAKCTSTGWIPAPRCTLKPPCPPCPAPEFLGGPSVFLFPPKPKDTLMISRTPEVTCVVVDVSQEDPEVQFNWYVDGVEVHNAKTKPREEQFNSTYRVVSVLTVLHQDWLNGKEYKCKVSNKGLPSSIEKTISKAKGQPREPQVYTLPPSQEEMTKNQVSLTCLVKGFYPSDIAVEWESNGQPENNYKTTPPVLDSDGSFFLYSRLTVDKSRWQEGNVFSCSVMHEALHNHYTQKSLSLSLGK

EC50 [3]: 0.275 nM
B3: CRIg-L-FH-FCG4 (Fc fusion)
chain: [skipping about 120 residues]SGGGGSGGGGSGGGGEDCNELPPRRNTEILTGSWSDQTYPEGTQAIYKCRPGYRSLGNVIMVCRKGEWVALNPLRKCQKRPCGHPGDTPFGTFTLTGGNVFEYGVKAVYTCNEGYQLLGEINYRECDTDGWTNDIPICEVVKCLPVTAPENGKIVSSAMEPDREYHFGQAVRFVCNSGYKIEGDEEMHCSDDGFWSKEKPKCVEISCKSPDVINGSPISQKIIYKENERFQYKCNMGYEYSERGDAVCTESGWRPLPSCEEKSCDNPYIPNGDYSPLRIKHRTGDEITYQCRNGFYPATRGNTAKCTSTGWIPAPRCTLKPPCPPCPAPEFLGGPSVFLFPPKPKDTLMISRTPEVTCVVVDVSQEDPEVQFNWYVDGVEVHNAKTKPREEQFNSTYRVVSVLTVLHQDWLNGKEYKCKVSNKGLPSSIEKTISKAKGQPREPQVYTLPPSQEEMTKNQVSLTCLVKGFYPSDIAVEWESNGQPENNYKTTPPVLDSDGSFFLYSRLTVDKSRWQEGNVFSCSVMHEALHNHYTQKSLSLSLGK

EC50 [4]: 0.093 nM
B4: CRIg-L(GS)-FH-FCG4-YTE-M86Y (Fc fusion)
chain: [skipping about 120 residues]GGGGSGGGGSGGGGSEDCNELPPRRNTEILTGSWSDQTYPEGTQAIYKCRPGYRSLGNVIMVCRKGEWVALNPLRKCQKRPCGHPGDTPFGTFTLTGGNVFEYGVKAVYTCNEGYQLLGEINYRECDTDGWTNDIPICEVVKCLPVTAPENGKIVSSAMEPDREYHFGQAVRFVCNSGYKIEGDEEMHCSDDGFWSKEKPKCVEISCKSPDVINGSPISQKIIYKENERFQYKCNMGYEYSERGDAVCTESGWRPLPSCEEKSCDNPYIPNGDYSPLRIKHRTGDEITYQCRNGFYPATRGNTAKCTSTGWIPAPRCTLKPPCPPCPAPEFLGGPSVFLFPPKPKDTLYITREPEVTCVVVDVSQEDPEVQFNWYVDGVEVHNAKTKPREEQFNSTYRVVSVLTVLHQDWLNGKEYKCKVSNKGLPSSIEKTISKAKGQPREPQVYTLPPSQEEMTKNQVSLTCLVKGFYPSDIAVEWESNGQPENNYKTTPPVLDSDGSFFLYSRLTVDKSRWQEGNVFSCSVMHEALHNHYTQKSLSLSLGK
notes: unlabelled in the other assays; also called biotin-CRIg-L(GS)-FH-FCG4-YTE-M86Y

EC50 [5]: 24.5 nM
B5: CRIg-FCG4 (Fc fusion)
chain: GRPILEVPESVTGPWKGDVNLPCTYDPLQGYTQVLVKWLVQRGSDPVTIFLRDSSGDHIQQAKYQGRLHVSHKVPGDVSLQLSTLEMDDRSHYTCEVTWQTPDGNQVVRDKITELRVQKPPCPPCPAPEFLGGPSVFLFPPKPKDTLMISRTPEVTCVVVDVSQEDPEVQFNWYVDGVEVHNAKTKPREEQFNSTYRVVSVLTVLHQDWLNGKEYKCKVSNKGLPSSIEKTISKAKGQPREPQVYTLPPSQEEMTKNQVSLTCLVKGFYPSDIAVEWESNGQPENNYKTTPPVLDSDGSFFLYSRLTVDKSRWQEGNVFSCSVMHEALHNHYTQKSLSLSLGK
